Measurements as given in the supplement of paper PMC3334620.
Whole data set: some 33,000 sequences, median “E-score (-0.5 to 0.5)” near -0.054, cut for the highest 2% near 0.39. Some of the results follow.

Target: Ylr278c (UniProt Q05854)
Assay: PBM E-score (8-mer binding enrichment) (E-score (-0.5 to 0.5)); higher = stronger / more preferred TF binding; most listed sequences are background and not binding sites
Conditions: protein concentration: 200 nM; construct: GST-DNA-binding domain
Procedure, shortened: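 E-scores (a modified Wilcoxon-Mann-Whitney statistic) were assigned by the Universal PBM Analysis Suite to every ungapped eight-base word pooled with its reverse complement. The input came from universal all-10-mer Agilent arrays made double-stranded by primer extension and probed with GST-tagged yeast transcription factors at about 100-200 nM. Fluorescent anti-GST detected bound protein, and masliner normalised the scans.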

Sequence | PBM E-score
GACGCTTA | -0.138
GAAGCTCC | 0.358
CCCAAGCA | -0.181
CATACAGC | -0.172
GCTCCAGC | 0.00053
AGTCGTAA | -0.0627
GCCACGGC | 0.036
GGGAGCAA | -0.00688
ACTTACGA | -0.142
AGGGTGGA | -0.201
ATAGTATG | -0.00786
ATAACCTC | -0.0638
CAGTGTAG | -0.16
CACCCGCC | 0.163
GGAACTAC | 0.0892
CGGGAAGC | 0.129
GAAAAACA | -0.0615
CCCTGGCA | -0.0965
TAGGAGGA | -0.151
ACCTCAAA | -0.0594
CTTACGGC | 0.0961
AAACCGGA | 0.438
AACCTTTA | -0.149
CCGTCCTC | 0.168
GCTTTGCA | -0.163

Sequence | PBM E-score
CTGGCGCA | -0.242
AACACCCC | -0.00988
CCAAGTAA | -0.116
GTGCCCAC | -0.133
CTTTTAGA | -0.105
GACGAGTA | -0.0638
AGAGTTAT | -0.036
GACACAGC | -0.024
CCCCCGCC | 0.235
CGATGTCA | -0.135
AACGCTAG | -0.117
CCATCATC | -0.113
ACGTCTCT | -0.173
AGAACGAG | -0.06
TCCAGGCA | -0.129
ATATATAT | 0.158
GCTCACAA | -0.122
ATATCAAC | -0.0612
CGTCCAAC | -0.136
CTAGGCTC | -0.163
ACCGCGTG | 0.0856
AAGACACA | -0.223
GTCCCGAA | 0.0873
CAGCATGA | -0.121
AAATATCT | 0.00279

Sequence | PBM E-score
ACCGGGTA | 0.219
GAGCACGC | -0.106
AAAGTCGA | -0.18
AACACGCT | -0.0413
AATCATAC | -0.129
ACCGTCTA | -0.0357
CTGTGTCC | -0.00541
CTTTTCTC | -0.138
ACTCTAGC | -0.0958
ACTCGGTA | -0.0549
AAGATCAG | -0.272
TAGCCCTA | -0.236
CCTATTCG | 0.0985
CTCTGATA | 0.00527
CGCGCAGC | 0.0441
CAAGTCTA | -0.218
TAGGGCGA | -0.155
TAATGAGA | -0.304
CCTGGTCC | 0.0539
AGTGATTA | 0.0438
AATCTGAC | -0.133
CCCTCCGA | 0.405
GGCTCTCA | -0.112
CATACTTA | -0.265
CGACTATC | -0.0738

Sequence | PBM E-score
ATAGAAAT | 0.0866
ATCCCCAA | -0.0668
GGAGCGAA | 0.0989
ATGGCATC | -0.00077
AGATTTCA | -0.0357
TATTAAGA | -0.106
GTATTTGA | -0.0847
ATCTATTC | -0.0659
CCTGTTCC | -0.0187
CGTCGCAC | 0.127
ACGGGATG | 0.0373
CGGTACGC | 0.129
GGGCAGTA | -0.00183
GGGTCACA | -0.225
CGCCATAA | -0.153
GAGAACAC | 0.0185
GAACCACA | -0.0927
TCGAAGCA | -0.245
ACCCAGAT | -0.16
ATAAGTCC | 0.236
GACGTGAC | -0.126
CGGACGTC | 0.338
TACGGACA | 0.257
AGAATGTC | -0.183
ATCTTGTA | -0.0397

Sequence | PBM E-score
TACACGCA | -0.227
TAAGCCAA | -0.159
ACACAATA | -0.069
GACAGTGA | -0.162
GAAAGCGA | 0.00637
AACTGCTA | -0.1
AGCCTCTG | -0.212
GATCTAGA | -0.165
ACATCCAT | -0.154
AACTAAGA | -0.117
CCCAAAGA | -0.123
CAGGTGTC | -0.0869
CATTATCA | -0.208
ACCGCTAA | -0.0014
AGACAATA | 0.0684
AGCGAAAG | -0.211
AATTTAAT | -0.0612
GCGAGAGC | 0.0507
GCAAATGA | -0.133
AATTTGCT | -0.0771
CAAATGCA | -0.347
TAGTATGA | -0.0268
CGAAAGAG | -0.0312
CCGAGCCA | 0.266
TCAGGAAA | -0.0178

Sequence | PBM E-score
ATATTGGA | 0.0229
AAGTGATC | -0.185
CTCGGTCA | 0.0207
GATTACGC | 0.0883
ACCCGGGG | 0.246
TAGTGGGA | -0.113
CCTACGCC | -0.0875
AGAGCGAG | -0.0316
ACACACCA | -0.0699
GTAGACGA | -0.255
ATCACGCC | 0.046
GACCAACA | -0.0396
ATAGAAGA | -0.101
GCATCATA | -0.0822
ACATAGGT | -0.244
TCATAGAA | -0.0632
GACGATAC | 0.0377
GAAAGTAC | -0.0189
AGAGCCCC | -0.11
ACACTTGA | -0.247
CCACATAC | -0.235
AACCACTA | -0.234
GCTTAACC | -0.157
GGACGGGA | 0.111
GAGTAAGA | 0.0177

Sequence | PBM E-score
ATCACGGC | 0.101
GTTCCTGA | -0.157
AGTGACGC | -0.0157
AATATGAT | 0.0638
CGCTTTTA | 0.129
ACGATCGA | -0.057
AGTGCAGC | -0.0398
CTAGAGGC | -0.217
CCGTCTCG | 0.205
GTGCCGGA | 0.438
AGATGCTA | -0.246
ACACGTGG | -0.0484
AAATGCAT | -0.0713
ATGACAGG | -0.154
CTGTCGGA | 0.404
GGCATAAC | -0.0552
AACATGGG | 0.0808
ACAAGTCA | -0.0817
TACAGTGA | -0.253
AGCAAGGC | -0.0887
CCAATCGC | -0.103
TCCAGCCA | -0.156
ACCCTTGG | -0.218
TGCAGGCA | -0.105
CGCATAAC | -0.0515

Sequence | PBM E-score
ATTACGTC | 0.00763
AACTTGCT | -0.0383
TATTCCGA | 0.453
ACCTGGAG | -0.128
TACTGCAA | -0.152
CGAAACAC | 0.102
GACTTCCC | 0.084
GCTCGACA | -0.357
CAGGCCTC | -0.224
CACGATTC | 0.0252
AACAAGGC | -0.26
CGCCAAAC | 0.0632
GAACCTAA | -0.00783
GGAGGGAA | 0.152
CAGACAGG | -0.188
GGCGATCA | -0.0139
CCTATACC | -0.0484
AGATTGGA | -0.117
GAAGATGC | -0.0458
AATACAAA | 0.172
ACGCGGTG | 0.131
CCGATATC | 0.349
AAGGGCTG | -0.213
AATTGCCA | -0.115
ATTGTCCG | 0.452

Sequence | PBM E-score
CCATAGCG | -0.0972
AACACCTC | -0.251
CGCATCGA | 0.00676
TATCACCA | -0.0632
AGCCAGCT | -0.102
GGTACAAA | -0.166
CTCGATGA | -0.12
CTCGCCCA | -0.205
TAAAGCAA | -0.0064
CATTGCAA | -0.12
AATGCCGT | 0.381
AGGACGAA | 0.168
CATGAGCC | -0.173
AATCACTA | -0.08
ATTGGGGA | -0.104
CGCAGTAG | 0.072
AGCCTTCA | -0.16
CTAGTGAC | -0.187
TGCAGCCA | -0.122
